# Laboratory results reported in PMC12820563, “FoxP3 forms a head-to-head dimer in vivo and stabilizes its multimerization on adjacent microsatellites”.
# This is one part of the list.
# Target: T1, MBP-FoxP1dN (Mus musculus, UniProt P58462 326-579)
# T1 sequence: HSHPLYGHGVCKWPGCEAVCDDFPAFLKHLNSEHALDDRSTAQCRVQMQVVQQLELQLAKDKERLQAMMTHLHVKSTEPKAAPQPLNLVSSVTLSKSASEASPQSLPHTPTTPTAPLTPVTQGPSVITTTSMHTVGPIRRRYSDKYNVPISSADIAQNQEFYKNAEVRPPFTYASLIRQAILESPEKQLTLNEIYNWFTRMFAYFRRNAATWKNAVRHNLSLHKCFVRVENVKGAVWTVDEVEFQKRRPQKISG
# Assay: PD-seq (MBP pull-down with sequencing); 20 mM Tris-HCl pH 7.5, 100 mM NaCl, 1.5 mM MgCl2, 0.4 uM protein, 0.1 uM dsDNA library, 30 min, room temperature, amylose pull-down; high values mean tight binding
# Details: protein: recombinant; tags: His6-MBP; chain copies: 2; dsDNA, one strand shown
# In short: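 A fragment of mouse FoxP3 or FoxP1 without its N-terminus, carrying a His6-MBP tag and produced in E. coli, was combined at 0.4 µM with a 0.1 µM degenerate double-stranded DNA library filled in with Klenow. The mixture sat for 30 min at room temperature in Tris pH 7.5 buffer containing NaCl and MgCl2. Protein–DNA complexes were captured on amylose resin, washed three times, and the DNA was freed with proteinase K, barcoded by PCR and sequenced on Illumina. Binding is expressed as reads-per-million enrichment of pull-down over input, with replicates pooled.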
row,Sequence,binding signal
1,GATGATTGTTCTCCCAGCTGATGAATTGATTAAATCGAGTAAACAAATTTTCCTAATCTTTCTGTTCAAGCGCCATCTAC,1.23 RPM ratio (pull-down/input)
2,GATGATTGTTCTCCCAGCTGATGAATTTTGTCAATCGAGTAAACAAATTTTCCTAATCTTTCTGTTCAAGCGCCATCTAC,1.33 RPM ratio (pull-down/input)
3,GATGATTGTTCTCCCAGCTGATGAATTCCTAGATTCGAGTAAACAAATTTTCCTAATCTTTCTGTTCAAGCGCCATCTAC,0.819 RPM ratio (pull-down/input)
4,GATGATTGTTCTCCCAGCTGATGAATTAACGCGTTCGAGTAAACAAATTTTCCTAATCTTTCTGTTCAAGCGCCATCTAC,1.06 RPM ratio (pull-down/input)
5,GATGATTGTTCTCCCAGCTGATGAATTAACAATGTCGAGTAAACAAATTTTCCTAATCTTTCTGTTCAAGCGCCATCTAC,1.17 RPM ratio (pull-down/input)
6,GATGATTGTTCTCCCAGCTGATGAATTCTTACCTTCGAGTAAACAAATTTTCCTAATCTTTCTGTTCAAGCGCCATCTAC,0.928 RPM ratio (pull-down/input)
7,GATGATTGTTCTCCCAGCTGATGAATTCGCATGTTCGAGTAAACAAATTTTCCTAATCTTTCTGTTCAAGCGCCATCTAC,0.913 RPM ratio (pull-down/input)
8,GATGATTGTTCTCCCAGCTGATGAATTGCATACGTCGAGTAAACAAATTTTCCTAATCTTTCTGTTCAAGCGCCATCTAC,1.34 RPM ratio (pull-down/input)
9,GATGATTGTTCTCCCAGCTGATGAATTTCACGATTCGAGTAAACAAATTTTCCTAATCTTTCTGTTCAAGCGCCATCTAC,0.798 RPM ratio (pull-down/input)
10,GATGATTGTTCTCCCAGCTGATGAATTGGAAATCTCGAGTAAACAAATTTTCCTAATCTTTCTGTTCAAGCGCCATCTAC,0.713 RPM ratio (pull-down/input)
11,GATGATTGTTCTCCCAGCTGATGAATTATGCGCATCGAGTAAACAAATTTTCCTAATCTTTCTGTTCAAGCGCCATCTAC,1.31 RPM ratio (pull-down/input)
12,GATGATTGTTCTCCCAGCTGATGAATTCGCAGGGTCGAGTAAACAAATTTTCCTAATCTTTCTGTTCAAGCGCCATCTAC,0.795 RPM ratio (pull-down/input)
13,GATGATTGTTCTCCCAGCTGATGAATTTGCGTTTTCGAGTAAACAAATTTTCCTAATCTTTCTGTTCAAGCGCCATCTAC,1.41 RPM ratio (pull-down/input)
14,GATGATTGTTCTCCCAGCTGATGAATTATAGTGGTCGAGTAAACAAATTTTCCTAATCTTTCTGTTCAAGCGCCATCTAC,0.961 RPM ratio (pull-down/input)
15,GATGATTGTTCTCCCAGCTGATGAATTGACACCTTCGAGTAAACAAATTTTCCTAATCTTTCTGTTCAAGCGCCATCTAC,1.18 RPM ratio (pull-down/input)
16,GATGATTGTTCTCCCAGCTGATGAATTCACAGCCTCGAGTAAACAAATTTTCCTAATCTTTCTGTTCAAGCGCCATCTAC,0.876 RPM ratio (pull-down/input)
17,GATGATTGTTCTCCCAGCTGATGAATTGAGCGACTCGAGTAAACAAATTTTCCTAATCTTTCTGTTCAAGCGCCATCTAC,0.645 RPM ratio (pull-down/input)
18,GATGATTGTTCTCCCAGCTGATGAATTCGCCCGTTCGAGTAAACAAATTTTCCTAATCTTTCTGTTCAAGCGCCATCTAC,0.826 RPM ratio (pull-down/input)
19,GATGATTGTTCTCCCAGCTGATGAATTGAGGACCTCGAGTAAACAAATTTTCCTAATCTTTCTGTTCAAGCGCCATCTAC,0.724 RPM ratio (pull-down/input)
20,GATGATTGTTCTCCCAGCTGATGAATTCCCCGTTTCGAGTAAACAAATTTTCCTAATCTTTCTGTTCAAGCGCCATCTAC,0.866 RPM ratio (pull-down/input)

row,Sequence,binding signal
1,GATGATTGTTCTCCCAGCTGATGAATTAAGTGCGTCGAGTAAACAAATTTTCCTAATCTTTCTGTTCAAGCGCCATCTAC,1.06 RPM ratio (pull-down/input)
2,GATGATTGTTCTCCCAGCTGATGAATTAGGGCGCTCGAGTAAACAAATTTTCCTAATCTTTCTGTTCAAGCGCCATCTAC,0.793 RPM ratio (pull-down/input)
3,GATGATTGTTCTCCCAGCTGATGAATTAAATGGCTCGAGTAAACAAATTTTCCTAATCTTTCTGTTCAAGCGCCATCTAC,0.869 RPM ratio (pull-down/input)
4,GATGATTGTTCTCCCAGCTGATGAATTTGGGCATTCGAGTAAACAAATTTTCCTAATCTTTCTGTTCAAGCGCCATCTAC,1.04 RPM ratio (pull-down/input)
5,GATGATTGTTCTCCCAGCTGATGAATTGACAGGATCGAGTAAACAAATTTTCCTAATCTTTCTGTTCAAGCGCCATCTAC,1.1 RPM ratio (pull-down/input)
6,GATGATTGTTCTCCCAGCTGATGAATTCATTACATCGAGTAAACAAATTTTCCTAATCTTTCTGTTCAAGCGCCATCTAC,1.04 RPM ratio (pull-down/input)
7,GATGATTGTTCTCCCAGCTGATGAATTCGGTTAGTCGAGTAAACAAATTTTCCTAATCTTTCTGTTCAAGCGCCATCTAC,0.894 RPM ratio (pull-down/input)
8,GATGATTGTTCTCCCAGCTGATGAATTTATGTGGTCGAGTAAACAAATTTTCCTAATCTTTCTGTTCAAGCGCCATCTAC,1.23 RPM ratio (pull-down/input)
9,GATGATTGTTCTCCCAGCTGATGAATTGATTGCTTCGAGTAAACAAATTTTCCTAATCTTTCTGTTCAAGCGCCATCTAC,1.26 RPM ratio (pull-down/input)
10,GATGATTGTTCTCCCAGCTGATGAATTTTATTCGTCGAGTAAACAAATTTTCCTAATCTTTCTGTTCAAGCGCCATCTAC,0.956 RPM ratio (pull-down/input)
11,GATGATTGTTCTCCCAGCTGATGAATTTCAGGGTTCGAGTAAACAAATTTTCCTAATCTTTCTGTTCAAGCGCCATCTAC,0.869 RPM ratio (pull-down/input)
12,GATGATTGTTCTCCCAGCTGATGAATTTAGACTTTCGAGTAAACAAATTTTCCTAATCTTTCTGTTCAAGCGCCATCTAC,1.04 RPM ratio (pull-down/input)
13,GATGATTGTTCTCCCAGCTGATGAATTATCTTGCTCGAGTAAACAAATTTTCCTAATCTTTCTGTTCAAGCGCCATCTAC,0.94 RPM ratio (pull-down/input)
14,GATGATTGTTCTCCCAGCTGATGAATTCACGGCGTCGAGTAAACAAATTTTCCTAATCTTTCTGTTCAAGCGCCATCTAC,0.885 RPM ratio (pull-down/input)
15,GATGATTGTTCTCCCAGCTGATGAATTTCACCACTCGAGTAAACAAATTTTCCTAATCTTTCTGTTCAAGCGCCATCTAC,0.877 RPM ratio (pull-down/input)
16,GATGATTGTTCTCCCAGCTGATGAATTCCCAATCTCGAGTAAACAAATTTTCCTAATCTTTCTGTTCAAGCGCCATCTAC,0.815 RPM ratio (pull-down/input)
17,GATGATTGTTCTCCCAGCTGATGAATTCCCTGCATCGAGTAAACAAATTTTCCTAATCTTTCTGTTCAAGCGCCATCTAC,1.05 RPM ratio (pull-down/input)
18,GATGATTGTTCTCCCAGCTGATGAATTCCGGTCTTCGAGTAAACAAATTTTCCTAATCTTTCTGTTCAAGCGCCATCTAC,0.787 RPM ratio (pull-down/input)
19,GATGATTGTTCTCCCAGCTGATGAATTGCCGCAGTCGAGTAAACAAATTTTCCTAATCTTTCTGTTCAAGCGCCATCTAC,0.916 RPM ratio (pull-down/input)
20,GATGATTGTTCTCCCAGCTGATGAATTGATTAATTCGAGTAAACAAATTTTCCTAATCTTTCTGTTCAAGCGCCATCTAC,1.23 RPM ratio (pull-down/input)
